From the supplement of paper PMC3334620
The full ranking holds about 33,000 sequences; the median of “E-score (-0.5 to 0.5)” is about -0.054, and the highest 2% start at about 0.39. Some of the results follow.

Target: Ylr278c (UniProt Q05854)
Experiment: PBM E-score (8-mer binding enrichment) (E-score (-0.5 to 0.5)); higher = stronger / more preferred TF binding; most listed sequences are background and not binding sites
Conditions: protein concentration: 200 nM; construct: GST-DNA-binding domain
Protocol: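 Universal 'all 10-mer' protein binding microarrays (Agilent AMADID 015681) probed with GST-tagged S. cerevisiae TFs (full-length or DBD) made by in vitro transcription/translation (PURExpress), about 100-200 nM. Bound TF was detected with fluorescent anti-GST. Each ungapped 8-mer (which stands for itself and its reverse complement) is scored by the PBM enrichment score (E-score), a modified Wilcoxon-Mann-Whitney statistic from -0.5 to +0.5, computed with the Universal PBM Analysis Suite. Scale: above 0.35 generally sequence-specific binding.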

Sequence	PBM E-score
GTCCACTA	-0.213
AGTAAAAG	0.043
CGAAAGTC	0.119
AACCCAGG	-0.176
AGTCGGTA	0.0614
ATTGCGAA	-0.0455
TGGAAGAA	-0.0236
ATCATGCC	-0.0981
ACTCTACC	-0.0553
GGTGGTAA	0.119
ATAATTAG	0.0427
ACCATGTG	-0.217
TCCCATCA	-0.249
AAAGCGTC	-0.246
GCGTGGAA	0.0269
GTACAAAC	-0.077
GGCATGTA	-0.101
TATGGTAA	-0.1
GTAAGAAA	-0.0755
CATCCACC	-0.00135
CCAGACCG	0.101
CATAACCA	-0.135
GTGAGTCA	-0.275
ATTAGTGA	0.0356
AACGAGTC	-0.0798

Sequence	PBM E-score
AGCATTGG	-0.0978
AGCCTCGC	-0.236
AGCCCGGC	0.332
AAAGTACT	-0.19
CCCACAGC	-0.298
AACTCGGT	0.00153
AATGAAAT	0.0722
TCTCTGAA	-0.172
GCTCTACC	-0.18
AAAAAGAA	0.0922
AGTATCCC	-0.0714
AACATTGT	0.024
ACATGATG	-0.173
AATTACGG	0.228
ATAGAATC	-0.0193
GTTTTTAA	-0.0406
AACCCATA	-0.0881
ACCCCTCG	-0.12
GCTCCACC	-0.071
AGCTCAAC	-0.0522
AGTGACTG	-0.247
ACCGTCGG	0.312
ATCGCCGG	0.421
AGTGCTGC	-0.113
CAGTTATC	-0.00584

Sequence	PBM E-score
AAAATCTA	-0.138
AAACTCTA	-0.11
CAGGTTAA	-0.192
CTATGAGA	-0.19
ACGAGAGA	-0.101
ATGATGGC	-0.0336
AGCTACAA	0.0768
AGCGGCCA	0.0573
CGATCCCC	0.174
AAAATAGA	0.117
ATTCAGTC	-0.0768
AAATCACA	-0.104
GATGCTAC	-0.144
CCCGTGCC	0.157
TATAGTAA	-0.0256
CCCCCCTC	-0.42
TAGTACGA	-0.0816
CGAGTCGC	-0.0111
AAGCGCAT	-0.0934
ACCAATTA	-0.0992
GACAACAC	-0.0996
TCCCGCAA	0.177
CGTGACGA	-0.00725
ACACTACA	-0.117
ACGGAGGC	0.302

Sequence	PBM E-score
GGAGTTGA	0.241
GATCACGC	0.0827
TATTACCA	-0.0747
CTCCTAGC	-0.174
ACGAATAG	-0.259
CCAGTAGG	-0.101
ACTCTCCG	0.405
ACCCACTG	-0.0317
CAGTACCC	-0.127
ACCTAAAA	-0.0992
GGCGTTCA	0.0988
GCGGTAGA	0.00437
TATACAGA	-0.184
CGCATACA	-0.0291
ACTCTTAT	-0.0467
TCAGGACA	-0.105
CGCGTCTC	0.0846
CATCGCAC	-0.00832
GACCGTTA	0.041
GCGGAATA	0.396
GCATGAAC	0.0795
CGGCGTTC	0.378
CCTAGTAG	-0.189
ATTGATAA	-0.165
CCCGACGA	0.213

Sequence	PBM E-score
CCTGGTAA	-0.087
CAAGACGG	0.063
ACCGAATA	-0.0947
GTCCCGGA	0.439
ACCATCGT	-0.0578
CAGATGGG	-0.172
CACCATGC	-0.0733
AGCACAAA	0.0198
GAGTTTTA	0.139
ACACATAA	-0.0281
CCCCTTAA	-0.112
TCTCGGCA	0.266
TCACGCGA	0.00133
AACGGGAG	0.157
GCACGCAC	-0.152
GCGGGACC	0.216
GAGCTTTA	-0.0266
TAGACGGA	0.289
AAGCTGCT	-0.182
ACACGTAG	-0.231
CCTCGAGA	-0.193
ACCTCACT	-0.138
GAGGCTTA	-0.0425
CGCAGTCC	0.0402
CTTCCAAC	-0.0646

Sequence	PBM E-score
GTGGCTTA	-0.256
CGGTAGGC	0.121
CGTAGCAA	-0.109
AGGGGAGA	-0.135
AGTGTACA	-0.268
TTTTAAAA	0.03
GCATCACC	-0.0755
TTCCTAAA	-0.238
GGTGACAA	-0.00085
AGAAGTCC	0.26
CTGAACGC	-0.0116
CAATACGC	0.0615
CCGGCCGG	0.461
AGGTGAGG	-0.14
CCCGGCAA	0.303
GCCCTGCC	-0.036
GCTTGCCA	-0.137
AGCGCGCT	0.0204
TCGGCGAA	0.372
AGGTATTA	-0.0551
ACTACTAG	-0.0129
CATAATCG	0.168
ATTAAGTC	-0.0973
CTACCGCA	-0.0439
AAGAGGTG	0.0441

Sequence	PBM E-score
ACTCTAAA	-0.0315
CTGAAGTC	-0.0671
GCATACAA	-0.0576
AACGGGAA	0.257
ACGTGTAG	-0.151
ACCACGTG	-0.149
GCATCCCC	0.142
GGACTCTA	0.0449
ACGGCGAG	0.0331
ATATCGGG	0.313
AATGAAGT	-0.0763
TCAAATGA	-0.0127
GAATAAAA	0.0963
CGTCGGTA	0.0934
AGTCACCC	-0.187
TCCTAAGA	-0.128
GTTGTAAA	-0.165
ATATGATG	-0.127
AGGGCAGC	-0.242
AAACATGG	-0.111
ATGCACAA	-0.207
ACCAGCGC	-0.167
GCTTGATA	-0.166
TGTGATAA	-0.241
AAGTGCAA	-0.227

Sequence	PBM E-score
TGATTCAA	-0.0652
CACATGGA	-0.226
TCGCCCAA	-0.145
ATGAATAC	-0.083
CAACCGGG	0.215
ACAATCGA	-0.178
ACGCGCGG	0.349
CTCATAGA	-0.278
TATACTGA	0.00579
ACAAAGTG	-0.113
ATGAGGAC	-0.0691
GCCATCGC	-0.0776
AGATAATG	-0.105
CGTTTGCC	0.16
ATTATTAA	0.115
CACGCCGG	0.347
TGAAAAAA	0.0278
AAAAGGTT	-0.11
ATTCATCC	-0.0901
AGATAGTC	-0.193
CCCTGAGG	-0.306
CCATAATA	0.00429
CAGTGATC	-0.0716
TCTAGAGA	-0.353
CGTATTAG	-0.0233

Sequence	PBM E-score
GAATTACA	0.0441
GCGGGAAA	0.282
ATGTCGGA	0.397
GGCTGAAA	0.0155
CTCTCGCC	-0.171
AGATCGAA	-0.00764
CGTGACCC	0.102
AGTGGCCG	0.182
CCCATCGC	0.146
GTTTCTTA	-0.209
ACGGTTAT	0.0186
CAATGAGA	-0.186
ACCGTCCT	-0.111
AAATTGGA	0.0275
ACCAGGTA	-0.0412
AACGATTG	-0.0873
AGGTAGTG	-0.0634
CCTTGGAG	-0.107
CGGAGGGA	0.368
GAGAAACA	0.0561
GAGTGTGA	-0.22
CGGCCAAC	0.181
ATCCCTAA	-0.254
GCAGCGGC	0.109
AAAGCCGC	0.294

Sequence	PBM E-score
CACACGTA	-0.319
CCGTTGCG	0.233
CAAGAACA	-0.199
ATCTCCGC	0.47
GGTATGTA	-0.0721
CCACTTGC	-0.0175
ACCCATCT	-0.0789
ACGAGGGA	-0.0806
CGCAAAGC	0.18
CTCCGAAA	0.477
GAGATGGA	-0.0596
AAATGAAA	0.0857
AGGCTTAA	-0.00203
CGTCGGAA	0.43
CGACTCGA	-0.0765
GACTGTGA	-0.0336
AGCCCATA	-0.0841
CTAGATGC	-0.181
AGGATTCC	-0.00339
GGCCGCCA	0.0383
CCATCTCC	0.286
AGCTCTTA	-0.112
AGGAACCT	-0.145
ATGTTATA	-0.197
ATAGGCAA	-0.24

Sequence	PBM E-score
ACTCGCTC	-0.0339
GATTAGGA	0.0592
CTCAGGAA	-0.0459
AGTTTAAG	-0.19
CTGAGACA	-0.205
TTAAGCAA	-0.0882
CCGCGTTA	0.226
ATCCAGTG	-0.0472
GCGCTCGA	-0.0716
TAATTCTA	-0.0905
CTCCTGGA	-0.176
GCCGGACA	0.447
ACGTCGGG	0.251
AAAATCGT	-0.0996
CAGAGCGC	-0.133
AGATCCAT	0.0524
GTGCCAAC	-0.126
TAAACTTA	-0.27
ATGGGAGA	-0.309
CTGTTTCA	-0.0702
GGAGAACC	0.291
AGGCGCGG	0.137
AGGGTCCC	-0.0195
ATCCCTGA	-0.125
GCGAAGCC	-0.00848

Sequence	PBM E-score
CCGAAAAG	0.243
CTGTCTCA	-0.124
CAATATCC	0.26
CCGGCTCC	0.381
AGGGCCAC	-0.255
AGTGCGGA	0.394
GTTCGACA	-0.0516
AGCTTTGG	-0.224
AAACAGAT	-0.136
ACGTAATG	-0.123
AATTAAAT	-0.0802
CAGCCGAG	0.0139
CCATTTCC	0.208
GCGTTTTA	0.0444
CACGATAC	-0.121
TCACGCCA	-0.0437
GTCCAAGA	-0.185
AATAATAA	0.0106
AGACTCCA	-0.192
AAGTACCA	-0.126
TATAGGCA	-0.279
TAGTTGAA	0.00666
CTCTCAAA	-0.144
AAGCTGGT	-0.15
TGAAGCCA	-0.253

Sequence	PBM E-score
ATAACAGC	-0.124
CCACGTTC	-0.0469
ATTGCTTG	-0.205
GGTAAGGA	-0.195
CGTCCACC	-0.00012
AAAACAAT	0.00158
CATTGGGC	-0.136
ATCCTTCA	-0.0414
GACTTCAC	-0.0108
GCGAGCGC	0.108
GCACTCAC	-0.0948
GGCTTAAA	0.035
AGGGCCCC	-0.123
TGAGCGCA	-0.166
CGCCCAGA	-0.0502
ACCGTTTG	-0.114
AGGGGTCC	-0.0366
CCTGGCGA	-0.131
AAAGTTGC	-0.132
TACCGTCA	0.0711
TAGCTCAA	-0.216
AGGTCTTG	-0.0124
AAGGGGGA	-0.0957
ATTGTATA	0.129
TGGCAACA	-0.275

Sequence	PBM E-score
CGGAGGAA	0.436
AATCCAGT	0.108
CAACAGGC	-0.109
CCTTAGGA	-0.00492
TATTTCAA	-0.186
AAGGCGGT	-0.121
AGGCTAGG	-0.346
TTGCACAA	-0.157
CGATCATC	-0.0326
AGCATGTG	-0.203
CATGATGA	-0.248
TACGCGAA	-0.0238
CCGCTAAA	0.216
CCCAGCCC	-0.124
AAGTATCG	0.0211
GGATCCAA	0.0511
GGAACGTA	-0.0398
GCATTGCC	0.0305
CGCGGAAG	0.316
